# These are yes or no findings as the source states them, for the method shown. For some assays here: In cells and extracts the contact can be indirect. Some entries that bind do so weakly or less than the wild type. For some assays here: Tags and fused reporters may be left off the sequences shown.
# T1: human IL-13Rα2, full-length cDNA in pcDNA3.1, expressed in 1HAEo cells (human) (UniProt Q14627)
# T1 sequence: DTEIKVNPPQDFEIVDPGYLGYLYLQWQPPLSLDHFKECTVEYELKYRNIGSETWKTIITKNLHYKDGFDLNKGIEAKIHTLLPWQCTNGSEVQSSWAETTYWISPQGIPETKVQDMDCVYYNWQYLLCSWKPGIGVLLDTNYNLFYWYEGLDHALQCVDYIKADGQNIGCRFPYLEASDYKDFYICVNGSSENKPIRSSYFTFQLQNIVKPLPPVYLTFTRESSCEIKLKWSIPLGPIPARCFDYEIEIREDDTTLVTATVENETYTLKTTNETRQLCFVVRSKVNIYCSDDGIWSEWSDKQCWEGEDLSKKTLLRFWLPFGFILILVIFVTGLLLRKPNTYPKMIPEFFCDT
# T2: human TMEM219, full-length cDNA in pcDNA3.1, expressed in 1HAEo cells (human) (UniProt Q86XT9)
# T2 sequence: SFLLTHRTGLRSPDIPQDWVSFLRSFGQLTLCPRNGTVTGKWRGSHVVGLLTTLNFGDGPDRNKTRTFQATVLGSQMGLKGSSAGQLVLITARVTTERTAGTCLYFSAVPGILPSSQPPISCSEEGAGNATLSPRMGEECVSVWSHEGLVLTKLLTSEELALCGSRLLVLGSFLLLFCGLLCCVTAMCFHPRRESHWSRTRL
# T3: IL-13Rα2-V1 (human) (UniProt Q14627)
# T3 sequence: T1 sequence
# T4: full-length human IL-13Rα2, yeast two-hybrid bait (pGBKT7-IL-13Rα2) (human) (UniProt Q14627)
# T4 sequence: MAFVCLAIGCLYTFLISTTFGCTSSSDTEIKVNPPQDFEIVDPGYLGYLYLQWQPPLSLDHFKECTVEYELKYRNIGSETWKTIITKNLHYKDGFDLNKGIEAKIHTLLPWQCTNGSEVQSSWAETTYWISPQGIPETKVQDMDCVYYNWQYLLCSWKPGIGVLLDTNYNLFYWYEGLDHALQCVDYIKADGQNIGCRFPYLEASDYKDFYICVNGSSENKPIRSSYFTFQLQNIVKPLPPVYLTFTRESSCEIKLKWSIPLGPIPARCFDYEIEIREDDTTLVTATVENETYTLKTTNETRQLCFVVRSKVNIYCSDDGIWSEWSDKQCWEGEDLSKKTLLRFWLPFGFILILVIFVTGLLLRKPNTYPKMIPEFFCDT
# T5: IL-13Rα2 in mouse lung (mouse (endogenous in lung)) (UniProt O88786)
# T5 sequence: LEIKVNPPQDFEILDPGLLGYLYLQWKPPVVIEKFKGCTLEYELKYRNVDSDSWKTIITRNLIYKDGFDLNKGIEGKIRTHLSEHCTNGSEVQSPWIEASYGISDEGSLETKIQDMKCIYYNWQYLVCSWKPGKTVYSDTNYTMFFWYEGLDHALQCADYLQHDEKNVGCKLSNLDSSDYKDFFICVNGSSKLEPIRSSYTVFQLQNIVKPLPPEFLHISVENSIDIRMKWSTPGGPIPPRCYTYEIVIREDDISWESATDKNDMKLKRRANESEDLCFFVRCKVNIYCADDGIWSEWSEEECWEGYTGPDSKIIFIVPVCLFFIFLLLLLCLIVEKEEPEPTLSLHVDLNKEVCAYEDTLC
# T6: recombinant human IL-13Rα1 (human) (UniProt P78552)
# T6 sequence: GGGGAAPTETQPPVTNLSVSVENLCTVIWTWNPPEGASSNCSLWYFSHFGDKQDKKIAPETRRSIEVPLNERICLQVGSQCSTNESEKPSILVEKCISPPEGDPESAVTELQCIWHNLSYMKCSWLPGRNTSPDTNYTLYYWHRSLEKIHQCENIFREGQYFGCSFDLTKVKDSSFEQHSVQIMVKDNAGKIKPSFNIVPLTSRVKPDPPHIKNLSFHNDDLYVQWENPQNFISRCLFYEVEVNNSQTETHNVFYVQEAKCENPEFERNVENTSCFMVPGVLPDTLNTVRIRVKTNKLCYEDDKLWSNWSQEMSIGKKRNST
# T7: ectodomain of IL-13Rα2 (ecto-IL-13Rα2), labelled (UniProt Q14627)
# T7 sequence (chain, BODPY-TRM-X-succinimidyl ester label): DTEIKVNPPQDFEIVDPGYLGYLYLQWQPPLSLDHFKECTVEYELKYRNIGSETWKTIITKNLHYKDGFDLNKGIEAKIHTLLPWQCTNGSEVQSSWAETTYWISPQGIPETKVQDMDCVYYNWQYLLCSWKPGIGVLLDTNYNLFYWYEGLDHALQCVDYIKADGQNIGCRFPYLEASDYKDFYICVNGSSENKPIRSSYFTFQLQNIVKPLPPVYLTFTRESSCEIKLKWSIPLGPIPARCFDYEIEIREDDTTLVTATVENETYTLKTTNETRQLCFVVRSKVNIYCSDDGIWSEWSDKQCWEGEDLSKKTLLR
# T8: TMEM219-V2 (human) (UniProt Q86XT9)
# T8 sequence: T2 sequence
# B1: human TMEM219, full-length cDNA in pcDNA3.1, expressed in 1HAEo cells (protein, UniProt Q86XT9 39-240)
# chain: T2 sequence
# B2: human IL-13Rα2, full-length cDNA in pcDNA3.1, expressed in 1HAEo cells (receptor, UniProt Q14627 27-380)
# chain: T1 sequence
# B3: TMEM219-V2 (protein, UniProt Q86XT9 39-240)
# chain: T2 sequence
# B4: full-length TMEM219 in the yeast two-hybrid mapping assay (protein, UniProt Q86XT9 1-240)
# chain: MGNCQAGHNLHLCLAHHPPLVCATLILLLLGLSGLGLGSFLLTHRTGLRSPDIPQDWVSFLRSFGQLTLCPRNGTVTGKWRGSHVVGLLTTLNFGDGPDRNKTRTFQATVLGSQMGLKGSSAGQLVLITARVTTERTAGTCLYFSAVPGILPSSQPPISCSEEGAGNATLSPRMGEECVSVWSHEGLVLTKLLTSEELALCGSRLLVLGSFLLLFCGLLCCVTAMCFHPRRESHWSRTRL
# B5: IL-13 in lungs of IL-13 transgenic mice (ligand, UniProt P20109 19-131)
# chain: APGPVPRSVSLPLTLKELIEELSNITQDQTPLCNGSMVWSVDLAAGGFCVALDSLTNISNCNAIYRTQRILHGLCNRKAPTTVSSLPDTKIEVAHFITKLLSYTKQLFRHGPF
# B6: His-tagged human TMEM219 (protein, UniProt Q86XT9 39-240)
# chain: T2 sequence
# B7: C-C chemokine receptor type 3 (CCR3)-V2 (receptor, UniProt P51677 1-355)
# chain: MTTSLDTVETFGTTSYYDDVGLLCEKADTRALMAQFVPPLYSLVFTVGLLGNVVVVMILIKYRRLRIMTNIYLLNLAISDLLFLVTLPFWIHYVRGHNWVFGHGMCKLLSGFYHTGLYSEIFFIILLTIDRYLAIVHAVFALRARTVTFGVITSIVTWGLAVLAALPEFIFYETEELFEETLCSALYPEDTVYSWRHFHTLRMTIFCLVLPLLVMAICYTGIIKTLLRCPSKKKYKAIRLIFVIMAVFFIFWTPYNVAILLSSYQSILFGNDCERSKHLDLVMLVTEVIAYSHCCMNPVIYAFVGERFRKYLRHFFHRHLLMHLGRYIPFLPSEKLERTSSVSPSTAEPELSIVF
# B8: C-C chemokine receptor type 3 (CCR3)-V1 (receptor, UniProt P51677 1-355)
# chain: B7 chain
# Experiments:
# [1] = biological target: T1, human IL-13Rα2, full-length cDNA in pcDNA3.1, expressed in 1HAEo cells (human); test: co-IP; lysates of 1HAEo cells co-transfected with IL-13Rα2 and TMEM219 plasmids (pcDNA3.1); IP with anti-IL-13Rα2 or anti-TMEM219, immunoblot for the other; Catch and Release V2.0 kit
# [2] = biological target: T2, human TMEM219, full-length cDNA in pcDNA3.1, expressed in 1HAEo cells (human); test: as above
# IL-13Rα2-V1 (human) [3] = biological target: T3, IL-13Rα2-V1 (human); test: split reporter; BiFC with Venus YFP fragments V1 and V2 in primary NHBE cells treated with rChi3l1 or rIL-13
# IL-13Rα2-V1 (human) [4] = biological target: T3, IL-13Rα2-V1 (human); test: split reporter; BiFC with Venus YFP fragments V1 and V2 in live 1HAEo cells; vehicle, rChi3l1 (500 ng/ml) or rIL-13 (20 ng/ml); confocal microscopy and FACS
# [5] = biological target: T4, full-length human IL-13Rα2, yeast two-hybrid bait (pGBKT7-IL-13Rα2) (human); test: two-hybrid; IL-13Rα2 constructs against full-length TMEM219, as described in ref. 13
# [6] = biological target: T5, IL-13Rα2 in mouse lung (mouse (endogenous in lung)); test: co-IP; Co-IP and IB with lung lysates from the progeny of crosses of IL-13 Tg mice and TMEM219-/- mice (with and without TMEM219)
# [7] = biological target: T6, recombinant human IL-13Rα1 (human); test: co-IP; Co-IP/IB with recombinant human TMEM219 (350 ng), IL-13 (300 ng) and IL-13Rα1 (500 ng); both purified
# [8] = biological target: Chi3l1 (chitinase 3-like-1), expressed in insect cells, labelled (UniProt P36222); test: condition: TMEM219 nanodisc 10-10,000 nM, labelled protein 10 nM; fluorescence polarisation; fluorescence anisotropy; serial dilutions of TMEM219 in 13 nm nanodisc (10 nM-10 μM) added to 10 nM labelled protein or complex; PBS for labelling; empty nanodisc as control; both purified
# [9] = biological target: T7, ectodomain of IL-13Rα2 (ecto-IL-13Rα2), labelled; test: as above
# TMEM219-V2 (human) = biological target: T8, TMEM219-V2 (human); test: split reporter; BiFC with Venus YFP fragments V1 and V2 in live 1HAEo cells; vehicle, rChi3l1 (500 ng/ml) or rIL-13 (20 ng/ml); confocal microscopy and FACS
binder,measurement,setting,value
B1,binding,[1],binds
B2,binding,[2],binds
B3,binding,IL-13Rα2-V1 (human) [3],binds
same,binding,IL-13Rα2-V1 (human) [4],binds
B4,binding,[5],binds
B5,binding,[6],binds
B6,binding,[7],"no binding (tested: rhTMEM219 350 ng, IL-13Rα1 500 ng)"
same,binding,[8],no binding
same,binding,[9],no binding
B7,binding,IL-13Rα2-V1 (human) [4],no binding
B8,binding,TMEM219-V2 (human),no binding

# Source: publication PMC5027616
